The record followed here is PubChem BioAssay AID1745853 (National Center for Advancing Translational Sciences (NCATS), 2022).

The other results are listed elsewhere or left out. These are further read-outs of the screen, such as a control signal, another cell line or another target. No call is given for them.

What all share (experiment): Primary Screen for Target Class Profiling of Small Molecule Inhibitors of Methyltransferases
The target in assay [1] is Glycine N-methyltransferase (Homo sapiens) (UniProt Q14749). The following applies: purified enzyme, MTase-Glo SAH luminescence; measured here: GNMT inhibition; at 40 µM; stronger effect = lower value. The essentials:
(§1)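 Each enzyme was assayed with SAM and its substrate. SAH formation detected by MTase-Glo luminescence; single-point 40 uM screen[…].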

Assay [2] concerns the target Guanidinoacetate N-methyltransferase (Homo sapiens) (UniProt Q14353). The conditions noted are these: purified enzyme, MTase-Glo SAH luminescence; measured here: GAMT inhibition; at 40 µM; stronger effect = lower value. The essentials:
as §1

The target of assay [3] is Histamine N-methyltransferase (Homo sapiens) (UniProt P50135). The conditions noted are these: purified enzyme, MTase-Glo SAH luminescence; measured here: HNMT inhibition; at 40 µM; stronger effect = lower value. The essentials: as §1
Assay [4] deals with Nicotinamide N-methyltransferase (Homo sapiens) (UniProt P40261). The conditions noted are these: purified enzyme, MTase-Glo SAH luminescence; measured here: NNMT inhibition; at 40 µM; stronger effect = lower value. In outline: as §1
Assay [5] has as its target Phenylethanolamine N-methyltransferase (Homo sapiens) (UniProt P11086). The conditions noted are these: purified enzyme, MTase-Glo SAH luminescence; measured here: PNMT inhibition; at 40 µM; stronger effect = lower value. The essentials:
as §1
On the % scale 0 is the no-effect control and ±100 the full control effect.

For the compound `CC1(C(=O)NC2CCCCCCC2)Cn2c(cc3occc32)C(=O)N1CC1CCCO1` (stereo not drawn), the activity change, negative = inhibition in assay [1] is -0.392%; in assay [2], 0%; in assay [3], 6.61%; in assay [4], -6.1%; in assay [5], 1.52%.

As to `CCNC(=O)N[C@H]1[C@H](O)[C@H](O)C[C@@H]1c1cncnc1`, the activity change, negative = inhibition is -4.52% in assay [1]; -7.92% in assay [2]; -4.32% in assay [3]; -4.46% in assay [4]; 4.12% in assay [5].

Take `O=C(C1CCCNC1)N1CCCn2cc(-c3ccccc3F)nc21` (stereo not drawn): the activity change, negative = inhibition in assay [1] was -2.51%; in assay [2] it was 1.64%; in assay [3], -8.87%; in assay [4], -10.3%; in assay [5], -21.4%.

For the compound `CCCOc1nccnc1NC1CCN(C(=O)c2cccnc2)CC1`, the activity change, negative = inhibition in assay [1] was -1.88%; in assay [2], -4.6%; in assay [3] it was 0.051%; in assay [4], -6.71%; in assay [5], -6.71%.

For `COc1ccc2c(c1)c(NC(C)=O)c1n2CC(C)(C(=O)NC2CCCCCC2)N(CCN(C)C)C1=O` (stereo not drawn), the activity change, negative = inhibition turned out to be 2.73% in assay [1]; 0% in assay [2]; 6.73% in assay [3]; 11.4% in assay [4]; 4.92% in assay [5].

Consider `CCOc1ccccc1CNC(=O)C(C)n1ccc2cc(S(=O)(=O)N3CCCC3)ccc21` (stereo not drawn), for which the activity change, negative = inhibition in assay [1] is 0.03%; in assay [2], 0.785%; in assay [3], -2.68%; in assay [4], -4.93%; in assay [5] it was -0.459%.

With `CC(C)c1nc(N2CCOCC2)ncc1C(=O)O`, the activity change, negative = inhibition was 0.63% in assay [1]; -0.987% in assay [2]; 3.11% in assay [3]; -0.796% in assay [4]; -0.288% in assay [5].

For `CCc1ccccc1N1C(=O)CSc2c(c3ccccc3n2C)C1C(=O)NCc1ccc(F)cc1` (stereo not drawn), the activity change, negative = inhibition in assay [1] is -2.56%; in assay [2], 0%; in assay [3], 7.87%; in assay [4], 0.986%; in assay [5], 11.3%.

Consider `C[C@@H](c1nc(-c2ccc(C#N)cc2)cs1)[C@](O)(Cn1cncn1)c1cc(F)ccc1F`, for which the activity change, negative = inhibition in assay [1] is -13%; in assay [2], -12.8%; in assay [3], -11.8%; in assay [4] it was -21.3%; in assay [5] it was -6.11%.

For the compound `CCCN1C(=O)c2c(C(=O)NCCc3ccc(OC)cc3OC)ncn2CC1(C)C(=O)NC1CCCC1` (stereo not drawn), the activity change, negative = inhibition in assay [1] was -2.91%; in assay [2], 0%; in assay [3], -1.72%; in assay [4], -0.128%; in assay [5], -0.163%.

For `N#Cc1ccc(S(=O)(=O)N2CCc3n[nH]c(=O)n3CC2)cc1`, the activity change, negative = inhibition in assay [1] is -1.61%; in assay [2], 1.95%; in assay [3], 0.689%; in assay [4] it was 3.16%; in assay [5], 6.7%.

Turning to `CC1CCC(NC(=O)C2(C)Cn3c(ccc3-c3ccco3)C(=O)N2C2CCCCC2)CC1` (stereo not drawn), the activity change, negative = inhibition was -2.39% in assay [1]; 0% in assay [2]; 1.17% in assay [3]; -6.02% in assay [4]; -2.26% in assay [5].

In the case of `C[S+](=O)([O-])N1Cc2ccccc2CC2(CCN(CC3CCCCC3)CC2)C1`, the activity change, negative = inhibition in assay [1] is -4.92%; in assay [2] it was -3.65%; in assay [3], -2.98%; in assay [4] it was -10.1%; in assay [5] it was -1.91%.

Turning to `CCn1nc(C2CCN(C(=O)CCO)CC2)nc1-c1cnc(N)c(-c2nnc(C(C)(C)C)o2)n1`, the activity change, negative = inhibition was -20.7% in assay [1]; -3.23% in assay [2]; -9.85% in assay [3]; -22.6% in assay [4]; -9.85% in assay [5].

On to `c1cncc(CN2CCOC[C@H]2c2ncc(-c3cccnc3)[nH]2)c1`, for which the activity change, negative = inhibition in assay [1] is -2.34%; in assay [2], -14.1%; in assay [3], -1.75%; in assay [4] it was -9.69%; in assay [5], -4.06%.

As for `CC(C)C(=O)N[C@H]1[C@H](O)[C@H](O)C[C@@H]1c1ccc(C(F)(F)F)nc1`, the activity change, negative = inhibition is -3.12% in assay [1]; -8.37% in assay [2]; -0.972% in assay [3]; -11.2% in assay [4]; -8.39% in assay [5].

As for `Cc1cc(N2CCC(NCc3cc(C)nn3C)CC2)nc(-c2ccccc2)n1`, the activity change, negative = inhibition in assay [1] is -2%; in assay [2], 1.64%; in assay [3], -2.59%; in assay [4], -7.36%; in assay [5], -1.82%.

Consider `COCC(=O)N(C[C@H]1O[C@@H](CC(=O)NC2CC2)[C@H](O)[C@@H]1O)C[C@H]1O[C@@H](CC(=O)NC2CC2)[C@H](O)[C@@H]1O`, for which the activity change, negative = inhibition in assay [1] is -4.05%; in assay [2], -4.5%; in assay [3] it was -0.995%; in assay [4] it was -10.9%; in assay [5], -15.2%.

For `Fc1ccc(C(c2ccc(F)cc2)N2CCNCC2)cc1`, the results for the activity change, negative = inhibition in assay [2], in assay [4] and in assay [5] were -1.33%, -20.1% and 4.5%, respectively.

With `COCCCNC(=O)C1(C)Cn2nc(-c3ccccc3)cc2C(=O)N1c1ccc(F)cc1` (stereo not drawn), the activity change, negative = inhibition in assay [1] is 4.53%; in assay [2] it was 0%; in assay [3], 3.37%; in assay [4], 9.49%; in assay [5], -2.34%.

Regarding `CCC(C)NC(=O)c1ccc2c(=O)n(C)c3nn(Cc4ccc(C)cc4)c(=O)n3c2c1` (stereo not drawn), the activity change, negative = inhibition was 1.87% in assay [1]; 1.53% in assay [2]; 4.07% in assay [3]; -1.09% in assay [4]; 3.97% in assay [5].

As for `CCN1CCCC2(CCN(C(=O)CCc3n[nH]c(C)c3C)C2)C1=O` (stereo not drawn), the activity change, negative = inhibition in assay [1] is -2.68%; in assay [2], -6.45%; in assay [3], -0.955%; in assay [4], -4.38%; in assay [5], -3.45%.

Turning to `Cc1ccc(NC(=O)Cn2c(=O)oc3cc(S(=O)(=O)N4CCCCC4)ccc32)cc1C`, the activity change, negative = inhibition in assay [1] was -2.33%; in assay [2], 0.945%; in assay [3], 4.79%; in assay [4], -4.55%; in assay [5], -7.79%.

As to `C=Cc1ccc(Cn2nc3n(C(C)C)c(=O)c4ccc(C(=O)NC(C)CC)cc4n3c2=O)cc1` (stereo not drawn), the activity change, negative = inhibition in assay [1] was -4.03%; in assay [2], -14.4%; in assay [3], 0.422%; in assay [4], -6.21%; in assay [5] it was -8.64%.

For the compound `Cc1cc2c(cc3n2CC(C)(C(=O)NC2CCCCCC2)N(C2CCCCC2)C3=O)o1` (stereo not drawn), the activity change, negative = inhibition in assay [1] was 3.65%; in assay [2] it was -7.21%; in assay [3], 8.15%; in assay [4] it was 0.677%; in assay [5] it was -0.05%.

As for `CN1C[C@H](C(=O)Nc2ccncn2)C[C@H]1c1cccc(C(F)(F)F)c1`, the activity change, negative = inhibition was -5.88% in assay [1]; -4.56% in assay [2]; -5.58% in assay [3]; -15.2% in assay [4]; -25.4% in assay [5].

With `C=C(C(=O)O)[C@H]1C[C@]2(C)[C@@H](O)CC[C@]23O[C@H]1C[C@@H]3C`, the activity change, negative = inhibition in assay [1] is -0.313%; in assay [2] it was 4.01%; in assay [3], 8.93%; in assay [4], -8.7%; in assay [5], 4.19%.

With `CCn1cc(S(=O)(=O)NCC2Cn3cccc3CN2Cc2ccccc2)cn1` (stereo not drawn), the activity change, negative = inhibition is -10.9% in assay [1]; -7.24% in assay [2]; -2.96% in assay [3]; -11.8% in assay [4]; -8.13% in assay [5].

Take `Cn1cc(-c2ccsc2)c2nc(CN3CCNC(=O)C3)cn2c1=O`: the activity change, negative = inhibition was -10.2% in assay [1]; -0.324% in assay [2]; 0.129% in assay [3]; -1.02% in assay [4]; -12% in assay [5].

`Cc1ccc(NC(=O)CN(C)S(=O)(=O)c2ccc3[nH]c4c(c3c2)CCCC4)cc1Cl`: the activity change, negative = inhibition in assay [1] is 2.57%; in assay [2], 0%; in assay [3], 0.956%; in assay [4], 1.95%; in assay [5] it was 2.87%.
